# Whole data set: some 33,000 sequences, median “E-score (dimensionless, -0.5 to 0.5)” near -0.058, cut for the highest 2% near 0.35. This is one part of the list.
# System: MvaT
# Assay: PBM 8-mer E-score (mean of HK and ME arrays) (E-score (dimensionless, -0.5 to 0.5)); higher = stronger relative binding preference; most listed sequences are background and not binding sites
# Method in brief: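 Full-length P. aeruginosa MvaT, with glutathione S-transferase fused to its N-terminus (cloned into pTH6838 by isothermal assembly), was tested by protein binding microarray using a previously described protocol. Two universal double-stranded 60-mer arrays (ME and HK) were used, each with a constant 25-mer primer region and a variable 35-mer region covering all 8-mers. The rank-based 8-mer E-score (-0.5 to 0.5) is the mean of the two arrays, parsed with a custom Python script.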
row,Sequence,PBM 8-mer E-score
1,GAAACTAC,0.161
2,CCTCCAGC,-0.389
3,ATATACAT,0.365
4,ATTGTTTA,0.241
5,GAACACTA,0.0437
6,AGGTATTG,0.201
7,ACGACCTC,-0.143
8,CATTGTAG,-0.0244
9,CTTGTTCC,-0.074
10,TAACAGTA,0.244
11,CGCTACGA,-0.149
12,CGTGCCCC,-0.248
13,CACAGGAG,-0.171
14,CTCGAACC,-0.209
15,CTGTGTGC,0.0347
16,GCGAGCTA,-0.0301
17,AGAGTAAA,0.099
18,ACAGTCAA,0.0297
19,ACGTTACT,0.0844
20,CATTGTCG,-0.014
21,TCAAAGCA,0.0511
22,AACACAAA,0.216
23,ATGCGTCC,-0.205
24,ATAGTAAC,0.271
25,GGACGCAA,-0.0801

row,Sequence,PBM 8-mer E-score
1,TATACTAA,0.391
2,ATATTCGG,0.143
3,ATTTACGC,0.112
4,GGCGGCCA,-0.215
5,GGCGCCAA,-0.0885
6,CGTCAGTC,-0.295
7,AAGTTTCA,0.303
8,CGCACACA,0.0262
9,GCTTGCTA,-0.156
10,AGTTGAGA,0.101
11,CTGATAAA,0.169
12,ACTATATA,0.452
13,CCCGACCC,-0.243
14,ACCGAGTC,-0.253
15,ACCGACAG,-0.0669
16,CATGCTAC,-0.164
17,AGGCCCAG,-0.138
18,GATAGCCA,-0.176
19,AGACGATC,-0.0554
20,ACTGGGAC,-0.0624
21,CCGGAGTA,-0.105
22,CATACCAA,0.0226
23,CTGCGTTC,-0.124
24,GCACAGAA,-0.102
25,GCACAGCA,-0.115

row,Sequence,PBM 8-mer E-score
1,AACAACGT,0.124
2,GGACCGTA,-0.168
3,ATCGTCTG,-0.138
4,CCCGCGGG,-0.33
5,ACGTGCCA,-0.00107
6,ACGGGGAA,-0.0252
7,AAACCAGA,0.114
8,ACAGATGA,-0.0583
9,AACACCCT,-0.033
10,GCGTGGCC,-0.246
11,ATTGGTAA,0.196
12,AGCGATGC,-0.239
13,CTCGAGCA,-0.0957
14,CGGCCTTA,-0.0675
15,ACAAGTGC,-0.112
16,AGAATCAT,0.148
17,CTTCATCC,-0.134
18,AAAGTGGT,0.0366
19,ACACATAC,0.171
20,ATCAAGCC,-0.141
21,TCATAAAA,0.23
22,CCGCGGGC,-0.167
23,CTAAATGA,0.126
24,AAGCCCTC,-0.349
25,ACTTGAAG,0.0371

row,Sequence,PBM 8-mer E-score
1,ATTCATCG,0.0726
2,CGTGCCGC,-0.064
3,ACACTGAG,-0.133
4,ATCTCTGA,-0.138
5,CCTAACCG,-0.115
6,CAAAACGG,-0.0343
7,GCTCTTCC,-0.164
8,AAACCGAC,0.0819
9,AATCCGAT,0.046
10,CAGAAACA,0.238
11,GCAAACTA,0.192
12,AGCGGTTC,-0.145
13,ACACCTAA,0.0706
14,ACGGAATG,-0.0102
15,GGACTGAA,-0.085
16,CCAGTGTC,-0.126
17,GGTGATAA,0.101
18,AGGTAAAT,0.161
19,CGGGGCTC,-0.358
20,CTAAACAA,0.111
21,ATCCCCCG,-0.154
22,ACCAACCT,-0.0228
23,CGAGGGGA,-0.279
24,CGTTAATC,0.127
25,GCTATTAC,0.121

row,Sequence,PBM 8-mer E-score
1,ACAGTCTA,-0.0014
2,CCACTTGA,0.0323
3,TAGCACTA,0.048
4,GGGAATAC,0.0837
5,GGATGCCA,-0.193
6,GGTCAGTA,-0.116
7,CCGAGACC,-0.296
8,GTACTATA,0.329
9,TTAATCAA,0.271
10,AACTTACG,0.318
11,CAGGAAAC,0.0615
12,CAAAAGCA,0.0104
13,GTGAAAAC,0.109
14,AGCGAAGC,-0.284
15,AAGTTGAC,0.117
16,CATCACCC,-0.207
17,GGAGCAAC,-0.202
18,ACAGCGCT,-0.187
19,GGGAAACC,-0.279
20,AAATCCGG,0.0185
21,GAACCGAA,-0.0231
22,CATGGGAC,-0.172
23,CGACTTTC,0.0202
24,GCACAGTA,0.0251
25,GCAGGGCC,-0.237

row,Sequence,PBM 8-mer E-score
1,AACGGTCA,-0.0983
2,TAAAGCTA,0.0834
3,CGCCGCTA,0.1
4,AGTGCCCA,-0.176
5,AGTCCTTG,-0.0717
6,GATGGCAA,-0.125
7,GGACGGAC,-0.303
8,AATACCGG,0.1
9,CGCAAGAA,-0.0532
10,CCGAGACG,-0.283
11,AACTGCCG,0.0494
12,GCAAGAAA,0.0406
13,ATCGTATC,-0.058
14,AGCATACG,-0.144
15,ATCCCACG,-0.158
16,CTTAGGTC,-0.118
17,AACTGCCA,-0.143
18,AGCGCATA,0.0722
19,CGCTCAGA,-0.212
20,CCTTCGGA,-0.341
21,ACGTCATA,0.0282
22,CCTATAGC,-0.119
23,ACCATCAA,-0.124
24,CCGTCAGC,-0.267
25,CTAATATC,0.299

row,Sequence,PBM 8-mer E-score
1,GCCAGATA,-0.147
2,CTCACTAA,-0.0215
3,CCGTGGAG,-0.139
4,CCTGCCCA,-0.219
5,CAGTCCGA,-0.179
6,CCCTCATC,-0.274
7,CTGTAAAG,-0.0752
8,CATGCGAA,0.0317
9,ACGCCAAT,0.127
10,CCTCGCAG,-0.152
11,AATAGACG,0.156
12,ATTGTGAG,0.0655
13,CTACTGCA,0.0177
14,ATCACTGA,0.0221
15,ATCGTCAG,-0.109
16,GAAATATA,0.408
17,CAAGAGAG,-0.194
18,CGCCTGTC,-0.262
19,CAGTCAGG,-0.208
20,AACCACAG,-0.111
21,GTCGAGGA,-0.213
22,ACCATGCC,-0.126
